Here are results for one molecule from patent publication US20200377555A1 (Janssen / Centocor, published 2020).

The target in assay [1] is UFV180498 H1 A/Puerto Rico/8/1934 (influenza A H1 A/Puerto Rico/8/1934). Kind of assay: AlphaLISA binding curves, culture supernatant. Background: Alpha assays give light when donor and acceptor beads are brought close together.
The target of assay [2] is UFV180501 H2 A/Singapore/1/57 (influenza A H2 A/Singapore/1/57). As to the kind of experiment: AlphaLISA binding curves, culture supernatant.

B1: MD3606 (Fc fusion)
chain: EVQLVESGGGLVQPGGSLRLSCAVSISIFDIYAMDWYRQAPGKQRDLVATSFRDGSTNYADSVKGRFTISRDNAKNTLYLQMNSLKPEDTAVYLCHVSLYRDPLGVAGGMGVYWGKGALVTVSSGGGGSGGGGSEVQLVESGGGLVQAGGSLKLSCAASGRTYAMGWFRQAPGKEREFVAHINALGTRTYYSDSVKGRFTISRDNAKNTEYLEMNNLKPEDTAVYYCTAQGQWRAAPVAVAAEYEFWGQGTQVTVSSGGGGSGGGGSEVQLVESGGGLVQPGGSLRLSCAATGFTLENKAIGWFRQTPGSEREGVLCISKSGSWTYYTDSMRGRFTISRDNAENTVYLQMDSLKPEDTAVYYCATTTAGGGLCWDGTTFSRLASSWGQGTQVTVSSGGGGSGGGGSEVQLVESGGGLVQPGGSLKLSCAASGFTFSTSWMYWLRQAPGKGLEWVSVINTDGGTYYADSVKDRFTISRDNAKDTLYLQMSSLKSEDTAVYYCAKDWGGPEPTRGQGTQVTVSS[sequence of human IgG1 Fc not given]
B1: the binding result in assay [1] and in assay [2] was “binds” in each case.
